The supplement of paper PMC11417369
Some of the results follow.

Test system: PF3D7_0420300 AP2 domain 1 (GST-tagged)
Experiment: gcPBM binding intensity (ln(normalized median fluorescence intensity)); higher = stronger DNA binding
How it was run: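 GST-tagged P. falciparum DNA-binding domains, expressed in E. coli (about 25 μg on average), were applied for 1 h to an Agilent 4 × 180k array of primer-extended double-stranded 36-bp intergenic genomic probes plus negative controls. The binding buffer was 1× PBS with 1% milk, 0.2 mg/ml BSA, 0.5% salmon testes DNA and 0.03% Triton X-100. Bound protein was detected with Alexa488 anti-GST antibody and scanned at 488 nm. Binding intensity is the highest Masliner-normalised natural-log median intensity across replicate spots of either probe orientation.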

Row | Sequence | gcPBM binding intensity (ln)
1 | ACTTATACAAAATGTGCATGTTATATTTACAATAAT [TGCATGCA_site108] | 9.4
2 | GGAATAGTAATATATACACACAAATACATATATATA [CACACA_site67] | 9.8
3 | TTTATTTTTTAATGATGTACTATTTATCCAGAAAAG [XGTACX_site7750] | 8.99
4 | TAACACCAAACTAAATGTACACACATACATAAATAT [XGTACX_site2201] | 9.76
5 | TCTTATATGATATTTATTTATTTATTTATTTATTCA [GTGCAC_negctrl_site686] | 9.23
6 | TAAATGTGAACAATAGAAGTAATAAGAAGAATAAAA [CACACA_negctrl_site1080] | 9.38
7 | AATGAATAATTATTTTGTACATAATATTATATTTAT [XGTACX_site5350] | 9.19
8 | TTTATTTTTTGTGGCACACAGAAGAAACAAGAACAA [CACACA_site1696] | 9.45
9 | AATAGTAATTTGAATACACACAATAATATATTTATA [CACACA_site7055] | 9.48
10 | TCTGTATATTATTCAAGTACACAATATAAATATAAA [XGTACX_site7241] | 9.09
11 | TATTGTTTTTTTTACTGTACACAAGTAAATGAAAAA [XGTACX_site790] | 8.73
12 | AAAAAATTCAAAAGGTGTACAACATTATATTATTCC [XGTACX_site5118] | 9.42
13 | GTATATAATTAAAGTTGTACCCTTAAAAAAGGGAAA [XGTACX_site7278] | 8.86
14 | AAAAATAAAAAAATAAATACGTATACATATATAATA [TGCATGCA_negctrl_site551] | 9.41
15 | GAACAAATTAAATAGGTGCATTAACATGTTCTATTT [GTGCAC_site9729] | 9.29
16 | GATAACTTTTTTCTCACACACAAATATTTTAATCAT [CACACA_site7685] | 9.8
17 | TATAATTATATGTATACACACACATACATTTACATA [CACACA_site9061] | 9.87
18 | AAAATGAAAATGAAAATGAAAATGGGAAAATGTCAA [TGCATGCA_negctrl_site488] | 9.48
19 | TAAATAAAAAAGAATACACACAGCATGCATAAATAT [CACACA_site237] | 9.92
20 | TTATATATAAGTTTATTCATTTTTTTTTTTTTTTTT [XGTACX_negctrl_site573] | 8.92
21 | CATATATATCGTAATGCACACATGTAATTTCATAAT [CACACA_site811] | 9.43
22 | TATCATATATAAAGAGGTACGTAAGAATAGAAAATT [XGTACX_site798] | 9.76

Row | Sequence | gcPBM binding intensity (ln)
23 | TAAATACATAAATACACACACATATATTATATATAT [CACACA_site4310] | 9.89
24 | ATATTAACTATCATAACACACACAGTAGACATATTT [CACACA_site6941] | 9.89
25 | TTCTTAAAAGGAAAGGTGCAACTTTATCATTTTCTT | 8.98
26 | TTTTTCATTTCTGCATTTATTTATAAATAAATATTT [CACACA_negctrl_site368] | 9.29
27 | ATATATATTATATAAGTGCATAATATTCTTTCTTTT | 9.23
28 | TATATATTTTGTGTCTGTACACATATTATTAATTCC [XGTACX_site7507] | 9.26
29 | TTTTTTTATCAATGTTGTACTTTTTTTTTTTTCCAT [XGTACX_site8864] | 9.39
30 | TACACGCATGGACACACACACACACCCATATATATA [CACACA_site4522] | 10.2
31 | TATAAGAGAATATATACACACAAAAATATATACAGT [CACACA_site1668] | 9.89
32 | TTCAAATATAAATACACACACATAGCTACAAAATAA [CACACA_site4172] | 10
33 | AAATTATTAAGTGATATAATATTCTATAGATGGGGA [CACACA_negctrl_site168] | 9.3
34 | TATATGATATAATATACACACATACAGATATATATA [CACACA_site4440] | 9.55
35 | AGAGGTAGAGAGAAAACATGCATAATGATTTTCATA [TGCATGCA_site958] | 9.15
36 | TAGAGGTATAAAATATGTACTTATAAAAACATGAAT [XGTACX_site8916] | 9.31
37 | TTTTCCAATTTAAAAGCATGCATCTGTTTTTTTTTT [TGCATGCA_site482] | 9.12
38 | ACATATAAATAAATAAATATATATATATATATATAT [GTGCAC_negctrl_site378] | 9.13
39 | TATTTACACCTAATCACAAATAAAATAAAATCAAAT [CACACA_negctrl_site531] | 9.33
40 | TAAATCAAAATAATTTAACACACAATTTTAATACTG [CACACA_site8744] | 9.37
41 | GATAAGGTATTCAAATGTACAAAATGTTTTATATAA [XGTACX_site6863] | 9.19
42 | TATGAAATTTTAATTACACACAGGAAAATAAAATGG [CACACA_site4935] | 9.57
43 | TAAAAAAAATATTTTTGTACGAATTAAATTTTTTTT [XGTACX_site4838] | 8.79
44 | ACATATTTTTAATACACACTCAAAAAAGTACTTAAC [CACACA_site3014] | 9.47

Row | Sequence | gcPBM binding intensity (ln)
45 | AAAAAAAGTAAATGTTGTACTATAATATGTAATATA [XGTACX_site7966] | 9.28
46 | TACATATATATTATATGTACTTATATTTTTATAATA [XGTACX_site3452] | 9.13
47 | ATATACATATCCATATTTATATCTATATTTAAAACA [CACACA_negctrl_site747] | 9.22
48 | AACCACATACATATAACACACATATACAATCTATAT [CACACA_site1987] | 9.85
49 | AAATAACACTAATGATGTACTCAACTATTTATAATT [XGTACX_site8183] | 9.47
50 | TTGACACGTATATGCACACACCCGTAAGTGTCCATT [CACACA_site2764] | 9.56
51 | ATATTTTATTATTGTTGTACTTTTTTTTGATTGTTT [XGTACX_site4090] | 9.61
52 | TTTTTTATGAACACGTCACACATCATTAAAATGTTT [CACACA_site5934] | 9.2
53 | TCACACATATATTCATGTACATATTAATATTTCCAT [XGTACX_site5387] | 9.47
54 | TTTAATATTTTTCAATGTAGAAAGTTTGTCTGTTAT [CACACA_negctrl_site973] | 9.09
55 | AGTTATAAACATATGTGTACTTATAAAAACATATAG [XGTACX_site3268] | 9.37
56 | TTGATGATATAAAAAAGTACTTATATTATATTATAT [XGTACX_site6492] | 9.07
57 | TTTTGTAAAAAAAAAAAAAAAGGAAAATTAAAATAA [CACACA_negctrl_site803] | 8.85
58 | TTTCCTATTTAATATAGTACATAAGAAATAATTTTA [XGTACX_site5952] | 8.72
59 | CTTGTATTTAAACACACACACACTTTCTTTTTTTAA [CACACA_site5133] | 9.84
60 | TTAATATTAATATATTGTACATATATGCACATATTT [XGTACX_site6569] | 9.19
61 | AACGTTCATATTTCCACACACAAAAAATAAATATAA [CACACA_site3344] | 9.68
62 | AATATTATAATATAAACACACAAAATTCAATTATAT [CACACA_site3789] | 9.69
63 | AAAAATAAAGGGCGAAAAAAAAAAAAAAAAAAAAAA [GTGCAC_negctrl_site671] | 8.38
64 | AAAATATATTATATATGTACATATTACGTTTTAATT [XGTACX_site2518] | 9.22
65 | CAATTTTAAGTAATCAATTTTTTTAAAAAACACAAA [CACACA_negctrl_site961] | 8.97
66 | TTAAAACCAAAACACAGTACATATATATATATATAT [XGTACX_site5668] | 9.4

Row | Sequence | gcPBM binding intensity (ln)
67 | TATATATATATGTATACACACATATGTATGTTATGT [CACACA_site4053] | 9.6
68 | TTTGTTAATTATAAATGTACATATTATATATATATA [XGTACX_site8870] | 9.18
69 | GCATAATATACTCTTACACACCATTTCTATATACAT [CACACA_site6799] | 9.86
70 | TTGTTTTTAGTTTATACACACCATATTAATATAATG [CACACA_site7452] | 9.47
71 | ATTTGGCATGGACACACACACACACCGACAGACATA [CACACA_site4491] | 10.2
72 | TTATATTATGGACACACACACAAAAAAAAAAAAAAA [CACACA_site7744] | 9.61
73 | ATATATATATAAAGTTGTACATTTTTTATTTTTTCA [XGTACX_site7847] | 9.12
74 | AAATTAATTAAATATACACACATATATAAATATATA [CACACA_site391] | 9.38
75 | TTTTTTTTTTAAAAAACACACACCTAAACAAGATAT [CACACA_site875] | 9.59
76 | ATATATATATATATTTGTACATATATATAATTTTTC [XGTACX_site7460] | 9.05
77 | TATAATTGTCTTCACACACACATATATATATATATA [CACACA_site2743] | 9.84
78 | AAAATAAAAAAAAAAGGTACACAAAAAGATGGACTG [XGTACX_site2650] | 9.47
79 | ATGTTGTCAAAAAAATGTACTTACATAATATTTTCC [XGTACX_site1732] | 9.12
80 | CGCATACACCAACACACACACACATATATATATATA [CACACA_site635] | 10.2
81 | TATAAATACTTATATGTACACACATATAGATATATA [CACACA_site8819] | 9.36
82 | TAGATCTTATTTACAAGTACATATATACGATTCATT [XGTACX_site7578] | 9.15
83 | AGAAGTCTGTAATGATGTACTGGAAAAATATAAATA [XGTACX_site8148] | 8.97
84 | ATCTAATATATATTCTGTACGTAATTAAAACCACAA [XGTACX_site3152] | 9.29
85 | ATTAATAATATTCCTTGTACATGATTTTTCTAAATA [XGTACX_site7099] | 9.07
86 | TATAAATATAAATACACACACACATCAATACAGATA [CACACA_site5850] | 10.1
87 | TGTGTTAATAGAAAAAGTACATATACATATATATAT [XGTACX_site4951] | 9.25
88 | TGCACAGACGGACACACACACAACTAAAAAATAATG [CACACA_site5424] | 9.98
